Results as given in PMC4242493.
This is one part of the list. The list includes weakly bound sequences.

The sequences below were run against MaxL homodimer (UniProt P61244) (assay: universal protein-binding microarray (PBM)). Conditions: PBS-based mixture, 10 nM His-tagged protein dimer, 2% milk, 200 ng/uL BSA, 50 ng/uL salmon testes DNA, 0.02% TX-100; detection with Alexa 488 anti-His …; high values mean tight binding; most listed sequences are background and not binding sites; double strand, one strand shown.
Chain of UniProt P61244 (P61244 whole entry): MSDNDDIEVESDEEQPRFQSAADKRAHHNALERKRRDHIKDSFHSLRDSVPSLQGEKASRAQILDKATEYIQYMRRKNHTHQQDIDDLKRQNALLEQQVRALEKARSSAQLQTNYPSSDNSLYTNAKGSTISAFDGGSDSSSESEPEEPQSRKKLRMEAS

Sequence	binding signal (normalized occupancy)
ATAGACTG	0.0745
CGGCTCGA	0.0657
ATGGAGCA	0.0766
AACTAAAT	0.0763
GACCTCGA	0.073
ATACTGGC	0.0812
AAGCGCTA	0.0673
ACGATTCC	0.0769
CACCTAGA	0.0748
AGACGCTC	0.0708
CCTCAGTC	0.0681
AAATAACA	0.0817
CCGAATAA	0.0678
CACGCTAA	0.0891
ACCATCAA	0.0729
ATTGCACA	0.0792
CGGGGGCA	0.0747
CTTCCACA	0.0773
ATGGTATG	0.0796
AGGACGTG	0.0736
GTCCCCTA	0.0697
AAACACAG	0.0769
ACAGTGAA	0.07
ATCGTGGG	0.0895
GCGCTAGA	0.0704

Sequence	binding signal (normalized occupancy)
GTCCGATA	0.0757
CAGGTTAC	0.0725
GTCCTACA	0.0752
AAGGTACA	0.0766
GACATCTC	0.078
ATAGACAG	0.0718
GAACCCGA	0.0696
CTAATTAA	0.0756
ACTCCGTC	0.0703
GATAACGC	0.0726
CTCTAAGC	0.0737
CATTCGCG	0.0781
AAGGGTGG	0.0818
CATGCGCG	0.11
ACGTACGC	0.0764
AATGGAAA	0.0735
AAAGGGAC	0.0699
GCCAATCA	0.0763
CATACCAC	0.0898
AAAGTAGG	0.0719
ACCTGCCT	0.0834
GATCGCCA	0.0755
ACACATTG	0.102
AGATTACT	0.0727
AGGTGGCC	0.0765

Sequence	binding signal (normalized occupancy)
CCAGGATC	0.0721
AGGCTCCG	0.0686
ATTCGCAA	0.0766
AACTGGCG	0.0672
CTCGGATC	0.0718
TAGTCCCA	0.0701
ACTCACCT	0.0804
AGTCCAGG	0.0704
ATGATCAA	0.0816
ATCTACTA	0.0809
TCCCCTCA	0.0785
ACCGTACT	0.0741
ATCGCTAA	0.0736
TAGTTATA	0.0872
ATGTTTAG	0.0823
AAGCGAGA	0.0699
AAATGTGC	0.0962
CCAGGCGG	0.0792
ACTGTCTG	0.0718
ACTAACCC	0.078
CCAGTCAC	0.081
AAGGGCCT	0.0719
CTGTTACA	0.0803
AATAGCGG	0.0744
GATGACTA	0.0757

Sequence	binding signal (normalized occupancy)
ACAGGGCA	0.0767
AATGACGC	0.078
CGTGTAGA	0.0822
ACAGGACA	0.0739
AAACAAAT	0.0815
AAATTTGG	0.0716
CAAAGGTA	0.0754
AAGCCCAG	0.0662
GCGGGTTA	0.0766
GATTATCC	0.0804
TGGTCGAA	0.0778
GCCGAATA	0.0712
GATCGTCA	0.0729
AGGCTATA	0.075
ATGCTCGC	0.0825
AGTTAGCC	0.0667
ACGTAGCA	0.0813
TCATACGA	0.0777
CATGGTTA	0.0903
ACTGCTGC	0.0746
TTGCGCAA	0.0725
AGTAAGAC	0.0757
ACTTATCC	0.0734
GAGTCAGC	0.0763
CCCTGGAG	0.0719

Sequence	binding signal (normalized occupancy)
ACCACGGT	0.0803
CGCCGCAC	0.08
ATGGTCTC	0.0821
CCGAACAG	0.0708
AAGGCCAG	0.0689
CCGCTTTA	0.0715
TGTTGGAA	0.0753
CCTTGTCG	0.072
AATCAAGC	0.0756
GTCGGTAA	0.0762
CGGGCCCG	0.0669
CGATAAGC	0.0729
AGAAAACT	0.0714
GCCCAGGC	0.0722
CACGAATG	0.0777
GGGTTTCA	0.0775
AGATCGAC	0.0718
GAAGGGCA	0.0743
GCTACGAA	0.0732
ATTCAACG	0.0823
GCACGAGC	0.085
AAGCTATA	0.0711
TAATAGGA	0.0767
AACTTGCG	0.0656
TACAACAA	0.0837

Sequence	binding signal (normalized occupancy)
TGATCGAA	0.0768
GGGGTTTA	0.0804
AGGGCTCA	0.0703
CCTTCAGC	0.0703
AGAGTGGC	0.0745
AAGAAGCT	0.0698
GCCCTTCC	0.0737
CACGCCAA	0.0823
AAAGATTT	0.0708
AGCAGGAA	0.0771
ACGGGTTC	0.0763
CAATAGCG	0.0758
ACTGTCAA	0.0789
ATAGCTCG	0.0703
ATCAATTC	0.0749
AGAGAGCA	0.0733
GATGGCCC	0.0719
AAAAAGCA	0.078
AAGCGCAC	0.0757
AAACTGGA	0.0722
CTAAAAAG	0.0655
TCATGTAA	0.0936
GCTCGTAA	0.0766
AGAATGAA	0.0781
AGAAATAC	0.0735

Sequence	binding signal (normalized occupancy)
GAGGGTGA	0.0727
GAGGGCGA	0.0741
TCTATGCA	0.0808
ATGATGGA	0.0861
ACGTCTGA	0.0724
AGCAGAAT	0.0719
TCCTAGGA	0.0742
AGGGCTTC	0.0709
ACAATCCG	0.0747
CTGGATGA	0.0778
CTGCCTGC	0.0727
ATAAGTGC	0.0785
CGGCGTCA	0.0685
CTGCGTAC	0.0715
GACACCCA	0.0749
CGTCATAA	0.0764
CACTCCAC	0.0873
CCGTCTAG	0.0677
CCGTACAA	0.0762
AAGTCACT	0.074
CTTAGGGA	0.0706
ACACAACG	0.0831
GAGCTAGA	0.0757
CAATCCAA	0.0699
CCCATGGC	0.0849

Sequence	binding signal (normalized occupancy)
GACTATAC	0.0845
CATGTGGG	0.144
GACTAAAA	0.0672
ATGGGCGG	0.0801
GACGCCTA	0.0708
ATACGCAC	0.0799
ACTCTTCT	0.0779
ATACAACA	0.0788
GCTGGCCA	0.0708
GAACACCA	0.0748
CGCCTCCA	0.0754
AGAGGTAT	0.0785
CAGGGCAG	0.0697
ATGTAGAC	0.0794
CCATCTCC	0.0767
CAATTGAA	0.0762
GCGCATAA	0.0782
AACACATT	0.0903
AGGATATC	0.0817
ATCCGAAA	0.0737
AACTGGAA	0.0737
AAGCTGGA	0.0707
AAGAGGTC	0.0695
ACTGAGCG	0.0729
ACCGCAGC	0.0715

Sequence	binding signal (normalized occupancy)
AGTTGTAG	0.0721
ACCCAGAT	0.075
GCCCCCCC	0.0757
ACGAACCT	0.0687
CGCTCCAA	0.0713
CATCCAGG	0.0738
CTAGCTCC	0.0747
AACACTAC	0.0726
ACTAAGCT	0.0637
GAACCGGC	0.0681
CTCCGTAC	0.072
CACGATTA	0.0799
ATAACCCG	0.0746
GTGCTCCA	0.0766
CTCCTTCC	0.081
GCAGAGCC	0.0683
TGTTGAAA	0.0755
ACTAGCTC	0.0723
GATGGTCA	0.0763
